From patent US20230136723A1 (ALPINE IMMUNE SCIENCES, published 2023)

B1: Domain 1: CD80 WT / Domain 2: CD86 WT / Fc (Fc fusion)
chain: VIHVTKEVKEVATLSCGHNVSVEELAQTRIYWQKEKKMVLTMMSGDMNIWPEYKNRTIFDITNNLSIVILALRPSDEGTYECVVLKYEKDAFKREHLAEVTLSVKADFPTPSISDFEIPGGGGSGGGGSGGGGSAPLKIQAYFNETADLPCQFANSQNQSLSELVVFWQDQENLVLNEVYLGKEKFDSVHSKYMGRTSFDSDSWTLRLHNLQIKDKGLYQCIIHHKKPTGMIRIHQMNSELSVLANFSQPEIVPISNITEGGGGSGGGGSAAA[… human IgG1 Fc with C220S R292C N297G V302C (EU numbers) …]
B2: Domain 1: CD80 WT / Domain 2: CD80 WT / Fc (Fc fusion)
chain: VIHVTKEVKEVATLSCGHNVSVEELAQTRIYWQKEKKMVLTMMSGDMNIWPEYKNRTIFDITNNLSIVILALRPSDEGTYECVVLKYEKDAFKREHLAEVTLSVKADFPTPSISDFEIPGGGGSGGGGSGGGGSVIHVTKEVKEVATLSCGHNVSVEELAQTRIYWQKEKKMVLTMMSGDMNIWPEYKNRTIFDITNNLSIVILALRPSDEGTYECVVLKYEKDAFKREHLAEVTLSVKADFPTPSISDFEIPGGGGSGGGGSAAA[… human IgG1 Fc with C220S R292C N297G V302C (EU numbers) …]
B3: Domain 1: ICOSL WT / Domain 2: CD80 WT / Fc (Fc fusion)
chain: DTQEKEVRAMVGSDVELSCACPEGSRFDLNDVYVYWQTSESKTVVTYHIPQNSSLENVDSRYRNRALMSPAGMLRGDFSLRLFNVTPQDEQKFHCLVLSQSLGFQEVLSVEVTLHVAANFSVGGGGSGGGGSGGGGSVIHVTKEVKEVATLSCGHNVSVEELAQTRIYWQKEKKMVLTMMSGDMNIWPEYKNRTIFDITNNLSIVILALRPSDEGTYECVVLKYEKDAFKREHLAEVTLSVKADFPTPSISDFEIPGGGGSGGGGSAAA[… human IgG1 Fc with C220S R292C N297G V302C (EU numbers) …]

Each binder was assayed against T1, human PD-L1 (human, UniProt Q9NZQ7) (assay: flow cytometry on transfected cells).
T1 construct: full-length surface expression construct on transfected Expi293F cells; also called CD274; B7-H1
T1 sequence (Q9NZQ7 19-290): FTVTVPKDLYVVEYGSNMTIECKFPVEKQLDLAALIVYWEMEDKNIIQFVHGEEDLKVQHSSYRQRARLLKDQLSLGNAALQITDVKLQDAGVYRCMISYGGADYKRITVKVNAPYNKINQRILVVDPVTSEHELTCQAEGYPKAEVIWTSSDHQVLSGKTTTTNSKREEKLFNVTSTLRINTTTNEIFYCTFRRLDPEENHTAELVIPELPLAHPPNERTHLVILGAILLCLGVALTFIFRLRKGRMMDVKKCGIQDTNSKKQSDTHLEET
Work on B1 yielded an MFI of 2080 MFI.
In the case of B2, the MFI is reported as 6300 MFI.
Binder B3 has an MFI of 2970 MFI.
